We go through one molecule from US20190048089A1 (Janssen / Centocor, published 2019).

The target of assay [1] is T1, human CD40 on cells (human tonsillar B cells, human dendritic cells, HEK-Blue CD40L cells) (human, UniProt P25942 21-277). Nature of the assay: cell-based or functional assay.
The target in assay [2] is T1, human CD40 on cells (human tonsillar B …). Nature of the assay: cell-based or functional assay. The source holds these as a separate data set.
In assay [3] the target is T2, human CD40 (analyte in SPR) (human, UniProt P25942 partial chain).
T2 construct: also called huCD40
Nature of the assay: affinity in benchmark table; method not restated (SPR ProteOn of Example 3 presumed).

B1: BMS-986090 (Fc fusion)
heavy: EVQLLESGGGLVQPGGSLRLSCAASGFTFRDYEMWWVRQAPGKGLERVSAINPQGTRTYYADSVKGRFTISRDNSKNTLYLQMNSLRAEDTAVYYCAKLPFRFSDRGQGTLVTVSSAST[omitted - human IgG4 Fc with S228P (EU numbers)]
notes: Benchmark
As to B1, in assay [1], the “IC50, B cell proliferation, membrane CD40L, human B-cells” value was 0.393 nM and the “IC50, B cell proliferation, soluble CD40L, human B-cells” value turned out to be 0.288 nM. Besides, in assay [2], the “IC50, human DC IL-12p40 production, membrane CD40L” value was found to be 0.822 nM and the “IC50, human DC IL-12p40 production, soluble CD40L” value was 0.285 nM. In assay [3], the affinity, expressed as Kd, was 0.87 nM.
